Experimental data: PubChem BioAssay AID1240 (Sanford-Burnham Center for Chemical Genomics, 2008)
The whole screen tested about 50,000 compounds, of which about 800 (1.6%) showed an effect of 50% or more. Some of the results follow.

Target: Bcl-2-like protein 10 (Homo sapiens) (UniProt Q9HD36)
Assay: Phenotype converters, Bcl-B/TR3 peptide binding displacement, primary biochemical FP (AID 1240);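 note: 0% = Bcl-B with tracer peptide and DMSO and 100% = tracer peptide lacking Bcl-B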
Conditions: GST-Bcl-B / FITC-TR3 peptide fluorescence polarization; stronger effect = higher value; compound at 3.75 mg/L

Chain of UniProt Q9HD36 (Q9HD36 whole entry, looked up): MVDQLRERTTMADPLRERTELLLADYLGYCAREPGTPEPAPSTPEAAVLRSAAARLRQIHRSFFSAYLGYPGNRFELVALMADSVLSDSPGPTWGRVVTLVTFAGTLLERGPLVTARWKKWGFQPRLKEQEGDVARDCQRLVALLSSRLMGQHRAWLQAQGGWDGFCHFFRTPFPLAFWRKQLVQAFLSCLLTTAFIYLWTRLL

SMILES	displacement [%]
CCCn1c(=O)c(C(=O)Nc2ccccc2O)c(O)c2ccccc21	0.9
CCOC(=O)CC1(C)NN=C(c2ccccc2)S1 (stereo not given)	-2.1
CC12CC3CC(C)(C1)CC(CNC(=S)Nc1ccccc1)(C3)C2	-6.3
COc1cccc(/C=C2/N=C(c3ccc(NC(C)=O)cc3)OC2=O)c1	33.2
Cc1coc2c(I)c3oc(=O)cc(C)c3cc12	-5.9
O=C(CC1Sc2ccc(C(F)(F)F)cc2NC1=O)Nc1ccccc1Cl (stereo not given)	0.2
O=C(CN(c1cccc([N+](=O)[O-])c1)S(=O)(=O)c1ccccc1)N1CCN(c2ccccc2)CC1	1.7
COc1ccc(-c2csc(NC(=O)CCCN3C(=O)c4cccc5cccc(c45)C3=O)n2)cc1	-16.6
COc1ccc(C2(N(C(C)=O)c3ccccc3)C(=O)c3ccccc3C2=O)cc1	11.7
Cc1cccc(OCCSc2nc3ccccc3n2CCO)c1	-2.1
CCOC(=O)c1cnc(SCCCc2ccccc2)nc1N	7.5
O=C1/C(=C/c2cccc(Br)c2)SC(=S)N1CCCC(=O)N1CCCc2ccccc21	13.3
CCCCNC(=O)/C(=C\c1ccc(-c2cccc([N+](=O)[O-])c2)o1)NC(=O)c1ccccc1	5.3
Cc1c(NC(=O)COc2ccc3ccccc3c2)cccc1[N+](=O)[O-]	9.7
N/C(=N\OC(=O)COc1ccc2ccccc2c1)c1cccnc1	-0.7
CN(CCOC(=O)c1cc(Br)ccc1Cl)C(C)(C)C	1.3
O=C(N/N=C/c1cc([N+](=O)[O-])ccc1O)/C(=C/c1cccs1)NC(=O)c1ccccc1	2.7
O=C(CC1Nc2ccccc2NC1=O)Nc1ccccc1NC(=O)CC1Nc2ccccc2NC1=O (stereo not given)	2.4
NS(=O)(=O)c1cccc(NC(=O)/C=C/c2ccc(Cl)cc2)c1	0.8
CC(=O)C(Cc1ccccc1)S(=O)(=O)c1ccc([N+](=O)[O-])cc1 (stereo not given)	5.1
O=C(NCCN1CCc2ccccc21)c1cccs1	1.2
CCOc1ccc(NC(=O)c2ccc(Cl)c(Cl)c2)cc1	1.6

SMILES	displacement [%]
CCOC(=O)C1=C(C)NC2=C(C(=O)CC(C)(C)C2)C1c1cccc(O)c1 (stereo not given)	2
COc1ccc(/C=C2\SC(=O)N(CCC(=O)O)C2=O)cc1OC	5.4
Cc1cc2c(cc1C)CN(c1ccc(C=Nc3ccc(Cl)cc3)cc1)C2	8
CC(=O)c1ccc(NC(=O)c2cc3cc(Br)ccc3oc2=O)cc1	5.3
CCC1=NN(C(=O)c2ccncc2)C(O)(C(F)(F)F)C1 (stereo not given)	-1.9
Cc1ccc(/C=N/n2nnnc2N)cc1	16.1
NC(=O)c1ccccc1NC(=O)c1ccccc1C(=O)O	-7.2
COc1cc2c(cc1NC(=O)Cc1ccc(OC)c(OC)c1)oc1ccccc12	-8
Cc1ccc(/C=N/NC(=O)c2ccc(C(=O)N/N=C/c3ccc(C)o3)o2)o1	14.4
Cc1ccc(C(=O)O)cc1NC(=O)c1ccc2c(c1)C(=O)N(c1ccc([N+](=O)[O-])cc1)C2=O	9.1
O=C(Nc1ccc(Cl)c(Cl)c1)Nc1nnc(COc2ccccc2)s1	-0.3
O=C(N/N=C/c1cccc(Br)c1)C1CC1	0.6
COc1ccc(/C=N/NC(=S)NC2CCS(=O)(=O)C2)cc1 (stereo not given)	9.3
CC(=O)Nc1cccc(C(=O)Nc2ccccc2C(=O)O)c1	-2
Cc1ccc2oc(C(F)(F)C(F)F)cc(=O)c2c1	3.9
C=CCC(C)(CC=C)NC(=O)c1ccccc1[N+](=O)[O-]	-6.9
COc1ccc(NS(=O)(=O)c2cccs2)c(OC)c1	5
COc1ccc(-c2csc(NC(=O)CCc3ccccc3)c2C(=O)O)cc1	-6.7
CSc1ccc(C2Nc3ccccc3NC3=C2C(=O)CC(c2ccc4c(c2)OCO4)C3)cc1 (stereo not given)	-4.6
CCOc1ccc(NC(=O)c2c(-c3c(Cl)cccc3Cl)noc2C)cc1	9.1
COc1ccc2c(c1)CCC/C2=N\OC(=O)c1cc(OC)c(OC)c(OC)c1	3.9
Cc1ccc(N2NC(=O)/C(=C\c3ccco3)C2=O)cc1C	6.4

SMILES	displacement [%]
O=C(NCc1ccc(F)cc1)c1ccccc1Br	1.1
Fc1cccc(Cl)c1CSc1nnc(-c2ccc(Br)cc2)o1	1.7
Cc1cccc(NC(=O)c2ccc3ccccc3n2)n1	-8.3
COc1cc(/C=C2\SC(=S)N(Cc3ccccc3)C2=O)ccc1OC(=O)C12CC3CC(CC(C3)C1)C2	-3
COc1cc(/C=C2\C(=O)NC(=O)N(c3ccc(Br)c(C)c3)C2=O)cc(OC)c1O	-22.1
Cn1ccnc1SCC(=O)N1c2ccccc2-c2c(ssc2=S)C1(C)C	-8
CC1(C)CC(=O)C(C=NCC2CCN(C(=O)Nc3ccc(Cl)c(Cl)c3)CC2)=C(O)C1	3.2
O=C(NCc1ccccn1)c1cccc([N+](=O)[O-])c1	-8.7
Cc1cc(NCc2cccnc2)nc2ccccc12	8
COC(=O)c1ccccc1NC(=O)c1ccc(I)cc1	10.9
O=C(NCC1CCCO1)c1cccs1 (stereo not given)	-4.7
O=C(Nc1nccs1)c1ccc(NC(=O)C2CCCCC2)cc1	-0.7
CCCSc1nc(N)c(C#N)c(-c2ccccc2)c1C#N	-11
CCOC(=O)C1=C(C)N=c2s/c(=C\c3ccc(O)c(OC)c3)c(=O)n2C1c1ccc(C)cc1 (stereo not given)	98.4
CC(=O)Nc1ccc(S(=O)(=O)/N=C2\C=CC(=O)c3ccccc32)cc1	22.2
O=C/C(=C\Nc1ccc(Br)cn1)c1nc2cc(Cl)ccc2o1	43.9
Cc1ccc(NC(=O)CSc2nc3ccccc3s2)c([N+](=O)[O-])c1	8.5
CC1(C)CC(C(CCNCc2ccccc2)c2ccccc2)CCO1 (stereo not given)	-7
CCOc1ccc(C=NCC2(c3ccccc3)CCCC2)cc1OC	9.1
O=C1CC(N2CCN(C(c3ccccc3)c3ccccc3)CC2)C(=O)N1c1ccc(F)cc1 (stereo not given)	-0.9
COc1cc(NC(=O)c2cnn3c2NC(c2ccc(Br)cc2)CC3C(F)(F)F)cc(OC)c1OC (stereo not given)	11.9
CCOC1C(OCC)N(S(C)(=O)=O)CCN1S(C)(=O)=O (stereo not given)	4.3

SMILES	displacement [%]
O=P(c1ccccc1)(c1ccccc1)C1COCCO1 (stereo not given)	7.4
O=C(NCCCNc1ccc([N+](=O)[O-])cc1Cl)c1ccc(F)cc1	14
Cc1cc(OCC(=O)NCc2ccccn2)ccc1Br	-0.3
Cc1cc(OCC(O)CN2CCN(Cc3ccccc3)CC2)ccc1C(C)C (stereo not given)	-1.9
CN1CCN(/N=C/c2c(C(F)(F)F)[nH]n(-c3nc4ccccc4s3)c2=O)CC1	-4.6
O=C(CCCN1C(=O)/C(=C\c2cccs2)SC1=S)Nc1ccc(Br)cc1	-0.3
COC(=O)c1c(N)sc(C)c1-c1ccc(F)cc1	1.7
N#C/C(=N\Nc1ccc(F)cc1)C(=N)N1CCCCC1	5.1
CC(=O)Nc1cccc(C(=O)Nc2ccc(NC(C)=O)cc2Cl)c1	34.6
Cc1cccc(N2CCN(S(=O)(=O)c3ccc([N+](=O)[O-])cc3)CC2)c1C	-6.3
CCOC(=O)c1c(NC(=O)C2CC2)sc(C(=O)Nc2ccccc2F)c1C	-15.7
CCOc1ccc2c(C)c(Cl)c(=O)oc2c1	6.4
COc1ccc2c(c1)C1=C(CC2)C(c2ccc(N(C)C)cc2)NC(=S)N1 (stereo not given)	2.6
COc1ccc(-n2c(SCC(=O)Nc3ccccc3C)nc(O)c(Cc3ccccc3)c2=O)cc1	3.6
N#CC(C(=O)O)=C1C2CC3CC(C2)CC1C3	-6.4
O=C1CC(c2ccccc2Cl)CC2=C1C(c1cccs1)Nc1ccccc1N2 (stereo not given)	2.9
CCOC(=O)C1=NNC2C(=O)N(CC)C(=O)C12 (stereo not given)	2.2
Cc1nc2c(-c3ccccc3)c(C)[nH]n2c(=O)c1Cc1ccccc1	-6.7
CCc1ccc(OCCSc2nc3ccccc3c(=O)[nH]2)cc1	2.4
NC(=O)c1c(NC(=O)c2ccc([N+](=O)[O-])s2)sc2c1CCCC2	11.9
CCCOc1ccc(/C=C2/C(=O)NC(=O)N2C(C)=O)cc1OC	8.2
COc1ccc(C)cc1NC(=O)COc1cc(C)c(Cl)c(C)c1	-1.6

SMILES	displacement [%]
CCOc1cc(/C=C2\SC(=S)N(c3ccc(F)cc3)C2=O)ccc1O	11.8
CCOC(=O)c1c(C)nc2c(c1C)/C(=N/O)CC(C)(C)C2	14.5
COc1cccc(C2NC(=O)NC(C)=C2C(=O)Nc2ccc(C)cc2)c1OC (stereo not given)	8.2
Cc1cccc(NC(=O)c2ccc(C(=O)Nc3cccc(C)c3)nc2)c1	-4.1
O=C(COc1ccc(Br)cc1)NNC(=O)c1ccccc1	-0.3
CN(Cc1ccccc1)Cc1c[nH]c2ccccc12	5.8
CC(=O)/C=C(\C)N1N=C(c2ccccc2)CC1c1cccc([N+](=O)[O-])c1 (stereo not given)	-5.8
CCC(=O)c1ccc(N2CCCCC2)c(F)c1	-16.6
O=S1(=O)CCC(NC(=S)N/N=C/c2ccc(-c3cc(Cl)ccc3Cl)o2)C1 (stereo not given)	9.8
OC1(C(F)(F)F)CC(c2ccccc2)=NN1C(=S)c1ccccc1 (stereo not given)	-10.5
O=C(CSc1nc2ccccc2[nH]1)N/N=C/c1c(F)cccc1Cl	-10.1
CC1(C)CC(=O)C2=C(C1)Nc1ccccc1N(C(=O)C(F)(F)F)C2c1ccco1 (stereo not given)	5.9
O=C(/C=C/c1ccccc1)Nc1ccc(F)c(F)c1	-7.7
CCOc1ccc(S(=O)(=O)NCc2ccccc2Cl)c2ccccc12	3.4
Cc1cccc(N2CCN(C(=O)c3ccc(Cl)c(Cl)c3)CC2)c1C	-4.2
COC(=O)CC(C(=O)OC)P(=O)(O)CN(C)S(C)(=O)=O (stereo not given)	-10.4
CC(C)CN1C(=O)c2ccc(C(=O)c3cccc([N+](=O)[O-])c3)cc2C1=O	-0.6
CN1CCN(Cn2c(O)c(N=NC(=O)c3cccnc3)c3cc(Br)ccc32)CC1	-7
COc1ccc(O)c(/C=C2\SC(=S)N(C)C2=O)c1	-41.4
COc1cc(C(=O)NCc2cccc3ccccc23)cc(OC)c1OC	9.9
Cn1c(O)c(C=NCc2ccc(Cl)c(Cl)c2)c(=O)n(C)c1=O	-7.3
Cc1c(C(=O)NC(C)c2ccccc2)cccc1[N+](=O)[O-] (stereo not given)	-12
